In all, about 360,000 compounds went through this assay and about 16,000 (4.4%) were called active. This list was built around the results that the source calls inconclusive (neither active nor inactive); the mix of calls is not that of the screen. The call rests on the fitted dose curve; in most records, active means well fitted inhibition curve with a large enough effect; inconclusive means small, poorly fitted or top-dose-only effect; inactive means no such curve, though single readings can be large or run the other way. Potencies of inconclusive entries are doubtful fits and often do not repeat.
What follows are compounds tested against Bromodomain adjacent to zinc finger domain protein 2B (Homo sapiens) (UniProt Q9UIF8) (assay: qHTS Assay for Inhibitors of BAZ2B). Conditions: AlphaScreen BAZ2B-H3K14Ac peptide displacement; activity change, negative = inhibition: at 114 µM (top of the series).
Method in brief: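 AlphaScreen displacement: compounds (up to 110uM) incubated 30 min at room temperature with a preformed 50 nM BAZ2B/50 nM biotinylated H3K14Ac peptide complex in PBS pH 7.4 with Tween-20. Donor and acceptor beads at 10 ug/mL final added, 20 min light-protected before reading.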
Further: nearly all actives have a fitted effect of over 60% in size.
On the % scale 0 is the no-effect control and ±100 the full control effect; potency means the concentration at half of the fitted maximal effect; tags describe the fitted curve by direction and shape.

Chain of UniProt Q9UIF8 (Q9UIF8 whole entry, looked up, the tested form may be a part): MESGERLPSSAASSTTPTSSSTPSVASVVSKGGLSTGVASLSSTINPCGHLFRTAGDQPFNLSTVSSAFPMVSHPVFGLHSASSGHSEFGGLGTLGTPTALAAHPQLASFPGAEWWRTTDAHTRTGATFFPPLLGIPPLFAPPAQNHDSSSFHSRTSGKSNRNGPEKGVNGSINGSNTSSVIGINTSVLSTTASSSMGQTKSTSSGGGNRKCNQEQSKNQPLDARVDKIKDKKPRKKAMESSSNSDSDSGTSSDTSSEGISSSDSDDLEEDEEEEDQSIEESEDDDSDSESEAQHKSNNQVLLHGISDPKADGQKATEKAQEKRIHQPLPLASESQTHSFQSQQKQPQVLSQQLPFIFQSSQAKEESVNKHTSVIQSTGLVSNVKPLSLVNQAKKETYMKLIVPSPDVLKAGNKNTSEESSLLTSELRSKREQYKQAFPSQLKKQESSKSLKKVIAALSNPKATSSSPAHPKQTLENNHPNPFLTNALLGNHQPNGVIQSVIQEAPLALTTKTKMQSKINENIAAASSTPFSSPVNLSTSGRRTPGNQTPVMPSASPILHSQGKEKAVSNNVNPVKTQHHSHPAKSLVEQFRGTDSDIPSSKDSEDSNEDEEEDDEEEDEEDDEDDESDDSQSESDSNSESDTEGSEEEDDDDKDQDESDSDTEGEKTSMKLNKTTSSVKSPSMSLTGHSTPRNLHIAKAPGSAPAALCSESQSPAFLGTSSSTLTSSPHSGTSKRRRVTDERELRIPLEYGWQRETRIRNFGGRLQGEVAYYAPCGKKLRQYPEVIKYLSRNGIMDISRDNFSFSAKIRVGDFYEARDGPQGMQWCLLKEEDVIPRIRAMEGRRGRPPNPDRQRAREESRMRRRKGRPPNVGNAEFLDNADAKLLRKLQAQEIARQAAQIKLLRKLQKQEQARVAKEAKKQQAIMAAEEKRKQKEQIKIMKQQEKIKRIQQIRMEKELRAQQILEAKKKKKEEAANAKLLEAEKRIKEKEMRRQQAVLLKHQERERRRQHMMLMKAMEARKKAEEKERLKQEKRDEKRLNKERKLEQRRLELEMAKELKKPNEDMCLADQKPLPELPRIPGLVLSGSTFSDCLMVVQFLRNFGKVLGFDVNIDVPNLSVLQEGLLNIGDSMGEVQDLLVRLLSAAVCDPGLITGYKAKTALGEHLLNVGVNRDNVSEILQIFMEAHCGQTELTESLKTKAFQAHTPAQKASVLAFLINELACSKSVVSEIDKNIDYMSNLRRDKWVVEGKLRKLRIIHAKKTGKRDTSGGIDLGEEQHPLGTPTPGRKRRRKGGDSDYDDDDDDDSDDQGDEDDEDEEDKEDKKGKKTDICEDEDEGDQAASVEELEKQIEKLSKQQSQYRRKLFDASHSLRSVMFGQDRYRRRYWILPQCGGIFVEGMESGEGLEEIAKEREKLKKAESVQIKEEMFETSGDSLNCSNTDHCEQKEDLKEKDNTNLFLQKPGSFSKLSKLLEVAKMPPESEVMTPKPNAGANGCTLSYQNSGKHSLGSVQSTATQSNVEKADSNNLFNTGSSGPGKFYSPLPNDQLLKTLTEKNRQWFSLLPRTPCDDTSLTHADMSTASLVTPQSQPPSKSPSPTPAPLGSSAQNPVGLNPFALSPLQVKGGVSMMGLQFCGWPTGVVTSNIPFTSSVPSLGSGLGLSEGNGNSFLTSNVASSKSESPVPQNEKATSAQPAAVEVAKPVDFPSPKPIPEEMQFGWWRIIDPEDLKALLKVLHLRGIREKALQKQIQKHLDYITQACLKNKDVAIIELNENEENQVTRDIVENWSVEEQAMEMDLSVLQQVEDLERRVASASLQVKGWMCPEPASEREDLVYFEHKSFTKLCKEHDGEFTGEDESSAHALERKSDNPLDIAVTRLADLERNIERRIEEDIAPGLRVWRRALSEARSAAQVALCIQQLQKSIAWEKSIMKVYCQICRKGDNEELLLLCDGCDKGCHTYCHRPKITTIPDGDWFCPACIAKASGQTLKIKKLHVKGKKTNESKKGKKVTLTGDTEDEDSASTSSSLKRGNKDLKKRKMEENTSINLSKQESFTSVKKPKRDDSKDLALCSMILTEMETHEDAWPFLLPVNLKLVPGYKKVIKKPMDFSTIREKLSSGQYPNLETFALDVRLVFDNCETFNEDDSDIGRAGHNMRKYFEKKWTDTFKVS

**Q.** `COc1ccc(-n2c(=O)c3ccccc3n(CC(=O)NCCc3ccccc3)c2=O)c(OC)c1` was tested. Which “activity change, negative = inhibition” value did it give?
**A.** inactive: 2.52%

**Q.** How did the Potency turn out when `C=CCOc1c(Br)cc(/C=C2/C(=O)ON=C2C)cc1OC` was run?
**A.** inconclusive: 89.1 µM [inhibitor, single point]

**Q.** Which “activity change, negative = inhibition” value does the source give for `CCn1c(SCc2ccc(C#N)cc2)nnc1-c1cccc(Cl)c1` here?
**A.** inactive: 12.8%

**Q.** With `CCOc1ccccc1CNC(=O)c1ccc(NC(=O)C2=C(C)OCCS2)cc1` as the compound, how does the Potency read?
**A.** inconclusive: 28.2 µM [inhibitor, full curve]

**Q.** For `Cc1cc(C(=O)CN2C(=O)NC3(CCCCC3)C2=O)c(C)n1Cc1ccco1`, which Potency is on record?
**A.** inconclusive: 50.1 µM [inhibitor, partial curve]

**Q.** `Cc1cccc2cc(/C=N/NC(=O)CN3CCCCC3)c(Cl)nc12` was tested. Which “activity change, negative = inhibition” value did it give?
**A.** inactive: -16.5%

**Q.** With `Cc1ccc(C(=O)c2c(C)oc3c2C(=O)C(=O)c2ccccc2-3)cc1` as the compound, how does the Potency read?
**A.** active: 31.6 µM

**Q.** `Ic1ccc(N2CCN(Cc3c[nH]c4ncccc34)CC2)cc1` was tested. Which Potency did it give?
**A.** active: 50.1 µM

**Q.** For `COc1ccc(Cn2nnnc2CN2CCN(c3ccc(OC)cc3)CC2)cc1`, which Potency is on record?
**A.** inconclusive: 70.8 µM [inhibitor, partial curve]

**Q.** For `Cc1cc(C2=NNC(=NC3CC3)SC2)c(C)n1Cc1ccco1`, which Potency is on record?
**A.** inconclusive: 79.4 µM [inhibitor, single point]

**Q.** For `Cc1[nH]c2ccccc2c1C(c1ccncc1)N1CCCCC1` (stereo unspecified), which Potency is on record?
**A.** inconclusive: 70.8 µM [inhibitor, single point]

**Q.** Which Potency does the source give for `Cc1ccc(C(=O)c2coc3cc([N+](=O)[O-])c(O)c([N+](=O)[O-])c23)cc1` here?
**A.** active: 44.7 µM

**Q.** How did the Potency turn out when `COc1ccc(CNc2nc(S(=O)(=O)c3ccccc3)c(Cl)s2)cc1OC` was run?
**A.** inconclusive: 70.8 µM [inhibitor, single point]

**Q.** For `CCOC(=O)C1=C(C)NC(SCc2cc(=O)[nH][nH]2)=C(C#N)C1c1cccs1` (stereo unspecified), which Potency is on record?
**A.** inconclusive: 79.4 µM [inhibitor, single point]

**Q.** `CCOc1ccc(N=CNc2ccc(OCC)cc2)cc1` was tested. Which Potency did it give?
**A.** inconclusive: 70.8 µM [inhibitor, single point]

**Q.** With `O=C(COc1ccc(Cl)cc1)Nc1sc2c(c1C(=O)Nc1cccc(Cl)c1)CCCC2` as the compound, how does the Potency read?
**A.** inconclusive: 79.4 µM [inhibitor, single point]

**Q.** With `Cc1ccc2c(C)nc(Nc3nc(CSc4nnc(C)s4)cc(=O)[nH]3)nc2c1` as the compound, how does the “activity change, negative = inhibition” value read?
**A.** inactive: 7.98%

**Q.** With `O=[N+]([O-])c1ccc(N=NNc2ccccc2)cc1` as the compound, how does the Potency read?
**A.** active: 28.2 µM

**Q.** How did the Potency turn out when `COc1ccc(C(C[N+](=O)[O-])c2c(-c3ccccc3)cc3ccccn23)cc1OC` (stereo unspecified) was run?
**A.** inconclusive: 70.8 µM [inhibitor, single point]

**Q.** `Oc1ccc(/C=N/N(c2ccccc2)c2ccccc2)c(O)c1O` was tested. Which Potency did it give?
**A.** active: 25.1 µM

**Q.** With `CC(C)C(=O)NC(C)C(c1cccs1)N1CCN(c2ccccc2)CC1` (stereo unspecified) as the compound, how does the Potency read?
**A.** inconclusive: 89.1 µM [inhibitor, single point]

**Q.** For `Cc1occc1-c1nnc(SCC(=O)NCC2CCCO2)n1C` (stereo unspecified), which “activity change, negative = inhibition” value is on record?
**A.** inactive: -3.22%

**Q.** `C=CCn1c(SCC(=O)N2CCOCC2)nc2scc(-c3ccco3)c2c1=O` was tested. Which Potency did it give?
**A.** inconclusive: 79.4 µM [inhibitor, single point]

**Q.** How did the Potency turn out when `CN(C)c1ccc(-c2ccc3c(=O)c4ccccc4n(C)c3c2)cn1` was run?
**A.** inconclusive: 89.1 µM [inhibitor, single point]

**Q.** `O=C(CCCn1c(SCC(=O)c2ccc(O)c(O)c2)nc2ccccc2c1=O)NCC1CCCO1` (stereo unspecified) was tested. Which Potency did it give?
**A.** inconclusive: 50.1 µM [inhibitor, partial curve]

**Q.** `Cc1ccc(S(=O)(=O)N(CC(=O)NCCSCc2ccco2)c2ccc(F)cc2)cc1` was tested. Which Potency did it give?
**A.** inconclusive: 28.2 µM [inhibitor, full curve]

**Q.** For `CCn1nc(NS(=O)(=O)c2cccc3nonc23)c2cc3ccc(C)cc3nc21`, which Potency is on record?
**A.** inconclusive: 70.8 µM [inhibitor, partial curve]

**Q.** With `CCC(C)Sc1ccc([C@@H]2[C@@H]3C(=O)N(C)C(=O)[C@@H]3[C@]3(C(=O)OC)CCCCN23)cc1OC` (stereo partly specified) as the compound, how does the Potency read?
**A.** inconclusive: 89.1 µM [inhibitor, single point]

**Q.** How did the “activity change, negative = inhibition” value turn out when `Cc1ccc(-c2n[nH]c(=S)n2Cc2ccccc2)cc1` was run?
**A.** inactive: -26.7%

**Q.** With `CC(=O)C(=Nc1ccc(Cl)cc1Cl)NNc1cccc(Cl)c1` as the compound, how does the Potency read?
**A.** active: 14.1 µM

**Q.** With `CCC(=O)Oc1oc(-c2ccccc2)nc1C=Nc1ccc(C)cc1` as the compound, how does the “activity change, negative = inhibition” value read?
**A.** inactive: -1.53%

**Q.** `Cc1cccc(C(=O)N2CCC(Cc3ccccc3)CC2)c1[N+](=O)[O-]` was tested. Which Potency did it give?
**A.** inconclusive: 70.8 µM [inhibitor, single point]

**Q.** For `CCOc1cc(N2CCOCC2)c(OCC)cc1NC(=O)c1cccc(N(C)C)c1`, which Potency is on record?
**A.** active: 39.8 µM

**Q.** `O=C(NCc1ccccc1)C(c1ccncc1)N(C(=O)c1csnn1)c1cccc(F)c1` (stereo unspecified) was tested. Which “activity change, negative = inhibition” value did it give?
**A.** inactive: -0.12%

**Q.** `O=C(O)c1nn(-c2cccc(Cl)c2)c(=O)cc1O` was tested. Which Potency did it give?
**A.** inconclusive: 70.8 µM [inhibitor, partial curve]

**Q.** `COC(=O)c1ccsc1NC(=O)CN1CCN(Cc2ccc3c(c2)OCO3)CC1` was tested. Which “activity change, negative = inhibition” value did it give?
**A.** inactive: -0.84%

**Q.** For `O=C(Nc1ccccc1N1CCCC1)c1ccc([N+](=O)[O-])o1`, which Potency is on record?
**A.** active: 31.6 µM

**Q.** How did the Potency turn out when `CCN(CC)S(=O)(=O)c1cccc(C(=O)N/N=C(\C)c2ccc(O)cc2O)c1` was run?
**A.** active: 8.91 µM

**Q.** How did the Potency turn out when `O=C(/C=C/c1ccc(N2CCCCC2)c([N+](=O)[O-])c1)c1ccc(O)cc1` was run?
**A.** active: 39.8 µM

**Q.** `COc1nc(OC)nc(Oc2ccc(Cl)cc2[N+](=O)[O-])n1` was tested. Which “activity change, negative = inhibition” value did it give?
**A.** inactive: -7.55%

**Q.** With `Cc1cc(N2CC(C(=O)NCc3cccnc3)CC2=O)ccc1C(C)C` (stereo unspecified) as the compound, how does the Potency read?
**A.** inconclusive: 89.1 µM [inhibitor, single point]

**Q.** Which Potency does the source give for `CCOC(=O)C1=C(C)N=c2s/c(=C/c3ccc(OCC(=O)O)cc3)c(=O)n2C1c1ccc(F)cc1` (stereo unspecified) here?
**A.** inconclusive: 89.1 µM [inhibitor, single point]

**Q.** How did the Potency turn out when `NS(=O)(=O)c1ccc(CCNCC(=O)NC2CC2)cc1` was run?
**A.** inconclusive: 89.1 µM [inhibitor, single point]

**Q.** Which “activity change, negative = inhibition” value does the source give for `COCCSc1nnc(NS(=O)(=O)c2ccc(F)cc2)s1` here?
**A.** inactive: -26.7%

**Q.** How did the “activity change, negative = inhibition” value turn out when `COc1ccc(C(=O)Nc2ccccc2C(=O)NC(C)C)cc1OC` was run?
**A.** inactive: -0.353%

**Q.** With `Cc1cccc(C)c1OCCCn1ccnc1` as the compound, how does the Potency read?
**A.** inconclusive: 79.4 µM [inhibitor, single point]

**Q.** For `O=C(Nc1nc(N2C(=O)c3ccccc3C2=O)n(-c2ccccc2)n1)c1ccc(F)cc1`, which Potency is on record?
**A.** inconclusive: 89.1 µM [inhibitor, single point]

**Q.** For `COc1cc(OC)c(OC)cc1CN1CCc2ccccc2C1`, which Potency is on record?
**A.** inconclusive: 89.1 µM [inhibitor, single point]

**Q.** With `COc1ccc(CN(C)CC(=O)NC(C)c2ccccc2)c(OC)c1` (stereo unspecified) as the compound, how does the Potency read?
**A.** active: 56.2 µM

**Q.** For `COc1ccc(-c2ccccc2NC(=O)C2CCCN(Cc3ccc(C)o3)C2)cc1` (stereo unspecified), which Potency is on record?
**A.** inconclusive: 70.8 µM [inhibitor, single point]

**Q.** Which Potency does the source give for `CC(=C/c1ccco1)/C=N/NC(=O)CSc1nnc(SCc2ccc(C)cc2)s1` here?
**A.** inconclusive: 8.91 µM [inhibitor, full curve, poor fit]

**Q.** For `Clc1cccc2c1Sc1ccccc1CC2N1CCNCC1` (stereo unspecified), which Potency is on record?
**A.** inconclusive: 56.2 µM [inhibitor, partial curve]

**Q.** How did the Potency turn out when `COc1cc(/C=C2/CC/C(=C/c3ccc(O)c(OC)c3)C2=O)ccc1O` was run?
**A.** inconclusive: 79.4 µM [inhibitor, single point]

**Q.** For `CCOC(=O)c1cc2c(ccn2C)n1CC(=O)N1CCN(c2ccc(F)cc2)CC1`, which Potency is on record?
**A.** inconclusive: 39.8 µM [inhibitor, full curve]

**Q.** `Cc1cc(C)n2nc(SCC(=O)Nc3cc(Cl)ccc3C)nc2n1` was tested. Which “activity change, negative = inhibition” value did it give?
**A.** inactive: -12%

**Q.** How did the “activity change, negative = inhibition” value turn out when `CCOc1ccc(S(=O)(=O)N(CC(=O)Nc2cccnc2)c2ccccc2)cc1` was run?
**A.** inactive: -12.7%

**Q.** How did the “activity change, negative = inhibition” value turn out when `COc1ccccc1CNC(=O)CCc1c(C)c2ccc(OC)c(C)c2oc1=O` was run?
**A.** inactive: -2.99%

**Q.** Which Potency does the source give for `COc1ccc(N2CCN(C(=O)CCc3c(C)nc4c(-c5ccccc5)c(C)nn4c3C)CC2)cc1` here?
**A.** inconclusive: 50.1 µM [inhibitor, partial curve]

**Q.** With `NC(=O)c1ccc(NC(=O)CSC2=Nc3ccccc3C3CC=NN23)cc1` (stereo unspecified) as the compound, how does the “activity change, negative = inhibition” value read?
**A.** inactive: 5.97%

**Q.** For `CCn1c(=O)c2sccc2n(Cc2cccc(C)c2)c1=O`, which Potency is on record?
**A.** inconclusive: 89.1 µM [inhibitor, single point]

**Q.** How did the Potency turn out when `N=C1C2=C3Sc4ccccc4N3CCCC2=NN1c1cccc(S(=O)(=O)O)c1` was run?
**A.** inconclusive: 79.4 µM [inhibitor, single point]

**Q.** For `COc1ccc2c(c1)cc(CNc1ccc(OC)c(OC)c1)c(=O)n2CC(=O)Nc1ccc(F)cc1`, which Potency is on record?
**A.** inconclusive: 50.1 µM [inhibitor, partial curve]

**Q.** How did the Potency turn out when `CCOc1ccccc1NC(=O)c1c(NC(=O)CCC(=O)O)sc2c1CCCCC2` was run?
**A.** inconclusive: 44.7 µM [inhibitor, partial curve]

**Q.** Which Potency does the source give for `NC(=O)c1ccsc1NC(=O)COC(=O)c1ccc(Cl)c(N)c1` here?
**A.** inconclusive: 50.1 µM [inhibitor, partial curve]

**Q.** How did the Potency turn out when `Cc1cc(=O)oc2ccc(OC(=O)CC(C)C)cc12` was run?
**A.** inconclusive: 89.1 µM [inhibitor, single point]

**Q.** How did the Potency turn out when `O=c1[nH][nH]c(-c2ccccc2)c1C=Nc1ccc(F)cc1F` was run?
**A.** inconclusive: 89.1 µM [inhibitor, single point]

**Q.** How did the Potency turn out when `COc1ccc(S(=O)(=O)N2CCCC(C(=O)NCc3ccco3)C2)cc1OC` (stereo unspecified) was run?
**A.** inconclusive: 89.1 µM [inhibitor, single point]

**Q.** With `Clc1nccnc1N/N=C/c1ccc(Br)cc1` as the compound, how does the Potency read?
**A.** inconclusive: 56.2 µM [inhibitor, partial curve]

**Q.** For `COc1ccc(NC(=O)c2cc(-c3ccccc3)nc3c2cnn3C(C)C)cc1`, which “activity change, negative = inhibition” value is on record?
**A.** inactive: -2.85%

**Q.** For `CC/C(=N\NC(=S)Nc1ccc(OC)cc1)c1ccc(OC(F)F)cc1`, which Potency is on record?
**A.** inconclusive: 31.6 µM [inhibitor, full curve]

**Q.** Which Potency does the source give for `COc1ccc(-c2nc3c4ccccc4ccn3c2CN2CCCCC2)cc1OC` here?
**A.** inconclusive: 50.1 µM [inhibitor, partial curve]

From PubChem BioAssay AID504333 (National Center for Advancing Translational Sciences (NCATS), 2011)
